± gives the uncertainty stated by the source. In all, about 9,900 compounds were measured (“viability index relative to DMSO control”: median about 1, lowest 2% from about 0.85 on). The list shows a part of the results.

Among the data in the supplement of paper PMC4723716 are viability index values, retold here.

For the test, the system named is Plasmodium falciparum NF54 stage V gametocytes. Briefly: viability index relative to DMSO control (fraction); higher = less gametocyte killing. The note with it: 2.5 µM, library set: Broad Institute DOS, incubation time: 72 h. An outline of the steps:
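P. falciparum NF54 stage V gametocytes (serum-free medium, 0.75% gametocytemia, 1.25% hematocrit) were exposed to compound at 2.5 µM for 72 hr at 37°C under low oxygen, then stained with MitoTracker Red CMXRos and saponin for one to two hours. Red particles of 20–70 µm2 in one field per well were counted, and the viability index is that count scaled to the plate mean of solvent-only wells.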
Compound `Cc1ccc(NC(=O)Nc2ccc3c(c2)C(=O)N(C)[C@@H]2CC[C@@H](CC(=O)NCC(F)(F)F)O[C@@H]2CO3)cc1` displayed a viability index of 0.998 ± 0.19.

For `CCS(=O)(=O)NCC[C@@H]1CC[C@@H](NC(=O)Nc2cc(Cl)cc(Cl)c2)[C@H](CO)O1`, the viability index is 1.09 ± 0.04.

`N#Cc1ccc(-c2ccc3c(c2)[C@H]2[C@H](CCN2C(=O)c2cccnc2)[C@@H](CO)N3)cc1` gave a viability index of 1.15 ± 0.077.

With `C[C@H]1CN([C@@H](C)CO)C(=O)CCCn2nncc2CO[C@H]1CN(C)C(=O)CCC(F)(F)F`, the viability index was determined as 1.089 ± 0.0015.

For the compound `COCC(=O)N1C[C@@H](C)[C@H](OC)CN(C)C(=O)c2ccc(NC(=O)Nc3cccc(F)c3)cc2OC[C@@H]1C`, the viability index was found to be 1.032 ± 0.0043.

`C[C@H](O)C#Cc1ccc([C@H]2[C@@H](CO)N3CCCCN(C(=O)c4ccc5c(c4)OCO5)C[C@@H]23)cc1` yielded a viability index of 1.056 ± 0.0023.

In turn, `C[C@H](CO)N1C[C@H](C)[C@H](CN(C)S(=O)(=O)c2cccs2)Oc2ccc(NC(=O)CCCCCC(=O)Nc3ccccc3N)cc2CC1=O` registered a viability index of 0.959 ± 0.048.

Turning to `COc1ccc(NC(=O)N(C)C[C@H]2Oc3c(NS(=O)(=O)c4c(C)noc4C)cccc3C(=O)N([C@H](C)CO)C[C@H]2C)cc1`, the viability index was 0.934 ± 0.036.

`CN(C)CCCNC(=O)C[C@H]1CC[C@@H]2[C@H](COC[C@@H](O)CN2Cc2cccc(C(F)(F)F)c2)O1` yielded a viability index of 1.09 ± 0.019.

`C[C@@H]1CN([C@@H](C)CO)C(=O)c2cccc(NC(=O)c3ccc(-c4nccs4)cc3)c2O[C@H]1CN(C)C(=O)Nc1ccc(C(F)(F)F)cc1` came in with a viability index of 1.011 ± 0.0069.

`CCCNC(=O)Nc1ccc2c(c1)C(=O)N(C)C[C@@H](OC)[C@H](C)CN(C)[C@H](C)CO2` yielded a viability index of 1.115 ± 0.0071.

Compound `CC(C)CC#Cc1ccc([C@@H]2[C@@H](CO)N3CCCCN(C(=O)Nc4ccccc4)C[C@@H]23)cc1` had a viability index of 1 ± 0.15.

`CC[C@@H]1C/C=C\C[C@H](c2ccc(OC)cc2OC)NC(=O)[C@@H](C)CC(=O)N1` showed a viability index of 1.02 ± 0.039.

`COc1ccc2c3c([nH]c2c1)[C@H](CO)N(C[C@]31CN(CC2CCOCC2)C1)S(C)(=O)=O` returned a viability index of 1.01 ± 0.08.

With `O=C(Cc1cccnc1)N1[C@@H](CO)[C@@H](c2ccccc2)[C@@H]1CNCC1CCC1`, the viability index worked out at 1.03 ± 0.033.

`O=C(C[C@@H]1CC[C@@H]2[C@H](COC[C@H](O)CN2Cc2nccs2)O1)NCc1ccccc1Cl`: the viability index amounted to 1.05 ± 0.048.

Take `CCCNC(=O)Nc1ccc2c(c1)OC[C@@H](C)N(C(=O)C1CCOCC1)C[C@H](C)[C@@H](OC)CN(C)C2=O`: the viability index was determined as 1.06 ± 0.011.

Consider `CN1C(=O)c2cc(NC(=O)Nc3ccccc3Cl)ccc2OC[C@H]2O[C@H](CC(=O)NCCCN3CCOCC3)CC[C@@H]21`, for which the viability index worked out at 1.15 ± 0.14.

Consider `C[C@H]1CN([C@@H](C)CO)C(=O)CCCn2nncc2CO[C@@H]1CN(C)C(=O)Nc1ccc2c(c1)OCCO2`, for which the viability index stood at 1.03 ± 0.028.
